These are yes or no findings as the source states them, for the method shown. Binding seen in cells or lysates may run through a third protein. Some entries that bind do so weakly or less than the wild type.
What was measured:
[1] = biological target: FLAG-RepID FL (U2OS stable) (UniProt Q8WWQ0); test: co-IP; anti-FLAG IP from nuclear and chromatin-bound fractions of U2OS cells expressing RepID FL, F2–5 and Δ3 fragments; immunoblot
[2] = biological target: BUB3 (endogenous) (human (endogenous in U2OS, HCT116, K562)) (UniProt O43684); test: co-IP; anti-BUB3 IP from lysate of asynchronized HCT116 RepID WT cells; immunoblot
FLAG-DDB1 (human) = FLAG-DDB1 (human) (UniProt Q16531); test: co-IP; anti-FLAG IP from chromatin fractions of FLAG-DDB1-transfected HCT116 cells released from mitotic block at the indicated time points; immunoblot
[3] = biological target: BUB3 (endogenous) (human (endogenous in U2OS, HCT116, K562)) (UniProt O43684); test: co-IP; anti-BUB3 IP from a mixture of soluble nuclear and chromatin-bound fractions of K562 RepID WT cells fractionated by elutriation; G2/M fractions; immunoblot
[4] = biological target: BUB3 (endogenous) (human (endogenous in U2OS, HCT116, K562)) (UniProt O43684); test: co-IP; anti-BUB3 IP from a mixture of soluble nuclear and chromatin-bound fractions of K562 RepID WT cells fractionated by elutriation; fractions outside G2/M; immunoblot

binding [1]	binding [2]	binding (FLAG-DDB1 (human))	binding [3]	Substance	binding [4]
binds	–	–	–	BUB3 (endogenous) (from UniProt O43684 1-328)	–
–	binds	binds	binds	RepID (endogenous) (from UniProt Q8WWQ0 1-1821)	no binding (condition: elutriated fractions outside G2/M)

Reference: article PMC6946706
